# The whole screen tested about 48,000 compounds, of which about 1,200 (2.5%) were called active. Another 2% or so got no clear call; they are omitted.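 The calls were made as follows: active = activation of at least 60% and not above a set upper limit (about 1 call in 100 departs from these limits); inconclusive = activation of 40% to 60%, or above that upper limit; inactive = activation under 40%.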 Some of the results follow.
# Target: Probable G-protein coupled receptor 32 (Homo sapiens) (UniProt O75388)
# Sequence of UniProt O75388 (O75388 whole entry, looked up): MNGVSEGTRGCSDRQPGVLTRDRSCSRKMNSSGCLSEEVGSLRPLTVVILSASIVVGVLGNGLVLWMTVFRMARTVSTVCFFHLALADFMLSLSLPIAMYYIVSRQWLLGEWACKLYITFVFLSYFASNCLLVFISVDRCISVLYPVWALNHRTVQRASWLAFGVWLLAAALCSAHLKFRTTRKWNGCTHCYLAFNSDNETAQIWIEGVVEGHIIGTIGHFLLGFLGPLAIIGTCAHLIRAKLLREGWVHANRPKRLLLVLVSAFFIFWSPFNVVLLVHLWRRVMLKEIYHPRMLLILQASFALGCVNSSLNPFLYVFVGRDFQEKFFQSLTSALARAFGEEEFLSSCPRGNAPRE
# Assay: qHTS for Agonists of Human Resolvin D1 Receptor DRV1; also: 0% is about no effect
# Settings: CHO-K1 GPR32 beta-arrestin PathHunter luminescence, 90 min; at 76.9 µM; active compounds read high; zero percent set by DMSO-only wells
# In short: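 Agonism was scored by beta-Gal fragment complementation (chemiluminescent read, 1 h detection at ambient temperature) reporting beta-arrestin binding to GPR32 in engineered CHO-K1 cells. Compound treatment lasted 90 min at 37 C, normalized to a DMSO basal control.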
row,SMILES,activation
1,COC(=O)c1ccccc1NC(=O)Cn1c(=O)n(CCCC(=O)NCc2ccccc2OC)c(=O)c2ccccc21,inactive: -3.42%
2,CSc1ncc(C(=O)Nc2cc(Cl)ccc2C)c(-c2ccccc2)n1,inactive: -2.14%
3,CC(=O)N1CCCc2cc(S(=O)(=O)N3CCN(c4cccc(C(F)(F)F)c4)CC3)ccc21,inactive: -23.6%
4,COc1ccccc1NC(=O)C1CCN(c2cnccn2)CC1,inactive: -19.4%
5,Cc1ccc(-c2cc(C(F)(F)F)nn2-c2ccc(S(N)(=O)=O)cc2)cc1,inactive: 2.49%
6,Cc1ccc(NC(=O)C2CCC(CNS(=O)(=O)c3ccc4c(c3)CCCC(=O)N4)CC2)c(C)c1 (configuration not stated),inactive: -17.7%
7,Cc1ccccc1-c1noc(-c2cc(-c3ccc(F)cc3)n[nH]2)n1,inactive: -9.17%
8,Cc1cn2c(=O)cc(COc3ccccc3NC(=O)c3ccc(Cl)cc3)nc2s1,inactive: -6.57%
9,CCOC(=O)c1ccc(NC(=O)CSc2nc3c([nH]c4ccccc43)c(=O)n2C)cc1,inactive: -25.8%
10,Cc1cc(C)cc(NC(=O)C2CCN(S(=O)(=O)c3ccc4c(c3)oc(=O)n4C)CC2)c1,inactive: 10.7%
11,CCCCc1nc2ccccc2n1CC(=O)N(COCC)c1c(C)cccc1CC,inactive: -1.34%
12,Cc1ccc2oc(-c3ccc(Cl)c(NC(=O)c4ccc(OC(C)C)cc4)c3)nc2c1,inactive: -10.5%
13,Cc1ccc(S(=O)(=O)N(CC(=O)Nc2ccc3c(c2)OCO3)c2ccc(C)c(Cl)c2)cc1,inactive: -4.62%
14,CC(C)c1ccc(Nc2c(-c3ccco3)nc3ccccn23)cc1,inactive: -18.7%
15,COc1cc(NC(=O)c2ccc(-n3cnc4cccnc43)cc2)cc(OC)c1,inactive: 2.31%
16,COc1ccc(/C=C/C(=O)Nc2ccc3nc(N4CCCCC4)cc(C)c3c2)cc1OC,inactive: -24.8%
17,COc1ccc(-c2noc(-c3ccc(N4CCC(C)CC4)c([N+](=O)[O-])c3)n2)cc1OC,inactive: 9.71%
18,COc1ccc(N(CC(=O)N2CCN(c3ccc(F)cc3)CC2)S(=O)(=O)c2c(C)n[nH]c2C)cc1,inactive: -0.337%
19,O=C(NCCc1csc2nc(-c3cccc(F)c3)nn12)c1ccc(Br)o1,active: 97.1%
20,CCOc1ccc(NC(=O)Cn2cc(S(=O)(=O)N3CCN(c4ccccc4F)CC3)c3ccccc3c2=O)cc1,inactive: -1.49%
21,Cc1ccc(CNC(=O)CSc2nc3n[nH]c(C)c3c(=N)n2-c2cccc(C)c2)cc1,inactive: -8.48%
22,CC(C)(C)c1ccc(C(=O)NC(Cc2c[nH]c3ccccc23)C(=O)OCC(=O)c2ccc(Cl)cc2)cc1 (configuration not stated),inactive: -12.1%

# Source: PubChem BioAssay AID1346428 (National Center for Advancing Translational Sciences (NCATS), 2018)
